Experimental data reported in PMC10020501.
Results are given in words; binding and its absence hold for the method and conditions named. Binding seen in cells or lysates may run through a third protein. Some binding calls cover weakened binding; strength is not graded here. Sequences can lack the tags named with a protein.

Target: T1, GFP-tagged human IKKϵ (IKKϵ-GFP) (human) (UniProt Q14164)
T1 sequence: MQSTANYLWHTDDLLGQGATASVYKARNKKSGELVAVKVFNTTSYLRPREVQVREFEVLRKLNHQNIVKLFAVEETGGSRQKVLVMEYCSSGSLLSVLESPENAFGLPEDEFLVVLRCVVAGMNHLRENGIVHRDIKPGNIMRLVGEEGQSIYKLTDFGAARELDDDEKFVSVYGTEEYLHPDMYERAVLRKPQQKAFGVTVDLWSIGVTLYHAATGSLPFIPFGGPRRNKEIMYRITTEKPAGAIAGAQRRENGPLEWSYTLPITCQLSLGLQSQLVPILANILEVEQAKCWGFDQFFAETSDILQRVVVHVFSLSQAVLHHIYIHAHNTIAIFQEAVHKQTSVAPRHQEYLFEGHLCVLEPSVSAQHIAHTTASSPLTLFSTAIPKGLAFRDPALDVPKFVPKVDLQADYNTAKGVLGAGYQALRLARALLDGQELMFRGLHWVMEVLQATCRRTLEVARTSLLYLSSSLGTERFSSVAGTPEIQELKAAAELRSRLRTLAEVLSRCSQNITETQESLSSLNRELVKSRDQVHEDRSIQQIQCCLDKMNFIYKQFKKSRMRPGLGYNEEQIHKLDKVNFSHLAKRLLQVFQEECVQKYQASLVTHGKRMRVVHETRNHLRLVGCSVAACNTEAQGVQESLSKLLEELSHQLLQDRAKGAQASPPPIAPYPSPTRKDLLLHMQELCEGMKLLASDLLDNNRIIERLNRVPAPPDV
Test: co-IP; IKKϵ-GFP precipitated with GFP-trap magnetic agarose beads (GFP nanobody) from lysates of IKKϵ-deficient THP1-Dual cells stably expressing IKKϵ-GFP; cells treated with MG-132 (10 µM, 6 h); TAP lysis buffer with N-ethylmaleimide, overnight at 4°C; immunoblot

B1: TANK-binding kinase (TBK1), endogenous (enzyme, UniProt Q9UHD2 1-729)
chain: MQSTSNHLWLLSDILGQGATANVFRGRHKKTGDLFAIKVFNNISFLRPVDVQMREFEVLKKLNHKNIVKLFAIEEETTTRHKVLIMEFCPCGSLYTVLEEPSNAYGLPESEFLIVLRDVVGGMNHLRENGIVHRDIKPGNIMRVIGEDGQSVYKLTDFGAARELEDDEQFVSLYGTEEYLHPDMYERAVLRKDHQKKYGATVDLWSIGVTFYHAATGSLPFRPFEGPRRNKEVMYKIITGKPSGAISGVQKAENGPIDWSGDMPVSCSLSRGLQVLLTPVLANILEADQEKCWGFDQFFAETSDILHRMVIHVFSLQQMTAHKIYIHSYNTATIFHELVYKQTKIISSNQELIYEGRRLVLEPGRLAQHFPKTTEENPIFVVSREPLNTIGLIYEKISLPKVHPRYDLDGDASMAKAITGVVCYACRIASTLLLYQELMRKGIRWLIELIKDDYNETVHKKTEVVITLDFCIRNIEKTVKVYEKLMKINLEAAELGEISDIHTKLLRLSSSQGTIETSLQDIDSRLSPGGSLADAWAHQEGTHPKDRNVEKLQVLLNCMTEIYYQFKKDKAERRLAYNEEQIHKFDKQKLYYHATKAMTHFTDECVKKYEAFLNKSEEWIRKMLHLRKQLLSLTNQCFDIEEEVSKYQEYTNELQETLPQKMFTASSGIKHTMTPIYPSSNTLVEMTLGMKKLKEEMEGVVKELAENNHILERFGSLTMDGGLRNVDCL
B1 was tested, and the binding was “binds”.
